From publication PMC12040169 (PLOS Biology, 2025)
The other results are listed elsewhere or left out.

Test system: T1, C. trachomatis L2/434/Bu expressing GFP (CTL2-GFP)
T1 construct: L2/434/Bu GFP intracellular growth in HeLa cells
Parameters: species or system HeLa; C. trachomatis total inclusion area by high-content imaging, normalised to DMSO
Conditions: total inclusion area; 28.5 h, 10 µM; inhibitor
Procedure, shortened: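 Post-fluorescence-read fixation, DNA staining with Hoechst and high-content imaging; GFP inclusion area and number per well, and nuclei counts, used as proxies for bacterial growth and host viability.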

| SMILES | % of control remaining |
| --- | --- |
| CS(=O)(=O)Nc1nccnc1N1CCN(c2ccccc2)CC1 [CBK048688] | 79.8276 |
| Cc1noc(NS(=O)(=O)c2ccc(NC(=O)COc3ccccc3Br)cc2)c1C [CBK263918] | 39.3227 |
| N#CC(c1ccc(O)cc1)N1CCOCC1 (centres unmarked) [CBK261659] | 103.824 |
| COc1ccc(NC2c3cccc4cccc(c34)C2NS(=O)(=O)c2ccccc2)cc1 (centres unmarked) [CBK264075] | 80.189 |
| Fc1ccc(CN2CCC(c3nnc4n3CCCCC4)CC2)cc1F [CBK283356] | 94.9362 |
| CC(=O)C(/N=N\c1ccc(S(=O)(=O)Nc2nccs2)cc1)C(=O)Nc1ccc(Cl)cc1 (centres unmarked) [CBK015826] | 100.423 |
| CCNC(=O)N[C@H]1CO[C@H]2[C@@H]1OC[C@@H]2n1nnnc1Oc1ccccc1 [CBK289484] | 87.6859 |
| O=C(CO)N1CC2(CCN(CCO)CC2)c2ccccc21 [CBK131507] | 96.1471 |
| Cc1cc(CC(=O)N2CCN(C(=O)c3ccco3)CC2)on1 [CBK144465] | 124.597 |
| Cc1ccc(NC(=O)/C=C/c2ccc3c(c2)OCO3)c(NC(=O)/C=C/c2ccc3c(c2)OCO3)c1 [CBK265423] | 98.3977 |
| CC(C)(C)c1nnc(NC(=O)c2ccc(F)cc2)s1 [CBK086855] | 70.6258 |
| Cc1ccc(-n2c(SCC(=O)N3CCc4ccccc43)nnc2-c2ccccc2O)c(C)c1 [CBK268793] | 133.995 |
| COC(=O)[C@@H]1CN(C(=O)c2cccs2)CCN1C(=O)c1cccnc1 [CBK289610] | 113.12 |
| COCCNc1cc(-c2cccc3oc4ccccc4c23)ncn1 [CBK090794] | 149.179 |
| Cc1nc(CN2CCN(C(=O)NCCc3cnn(C)c3)CC2)cs1 [CBK305614] | 64.0197 |
| CC(Sc1nnc(-c2ccc(Cl)cc2)n1CC(=O)O)C(=O)Nc1ccnn1C(C)C (centres unmarked) [CBK296970] | 74.4199 |
| CC(=O)OC(c1ccccc1)c1nc2ccccc2[nH]1 (centres unmarked) [CBK110141] | 89.3954 |
| CC(C)CNC(=O)c1cccc(NC(=O)N2CCC2c2cccs2)c1 (centres unmarked) [CBK306927] | 81.2267 |
| Cc1nonc1CC(=O)N1CCC[C@@H]2[C@H]1C/C=C/Cc1ccccc1OCC(=O)N2C [CBK292062] | 98.6923 |
| COc1ccc(C(C)N(CCN2CCOCC2)C(=O)NCc2cccnc2)cc1OC (centres unmarked) [CBK158986] | 82.798 |
| Cc1ccc(C(F)(F)F)cc1NS(=O)(=O)c1cc(OC2CCNCC2)c2occc2c1 [CBK082763C] | 65.9566 |
| O=C(c1ccccc1)N1CCC(c2cccc(Cc3ccccc3Cl)n2)CC1 [CBK286085] | 105.118 |
| CCN1CCCC1CN(Cc1cccs1)CC1CCOC1 (centres unmarked) [CBK282602] | 94.3019 |
| CCCN(C(=O)OC(C)(C)C)C1CCc2[nH]c(=O)c(C#N)cc2C1 (centres unmarked) [CBK023470] | 59.5674 |
| OCc1cccc(-c2cncc(NCCc3cccnc3)n2)c1 [CBK037946] | 129.428 |
| COc1ncccc1C(=O)N1Cc2ccccc2C1 [CBK200324] | 81.4333 |
| Cc1sc2ncn(CCC(=O)O)c(=O)c2c1C [CBK288191] | 99.847 |

| SMILES | % of control remaining |
| --- | --- |
| CC(C)c1cccc(C(C)C)c1OCCNCCO [CBK262750] | 94.9852 |
| O=C(C1=C(O)C(=O)N(CCCn2ccnc2)C1c1cccc([N+](=O)[O-])c1)c1cccs1 (centres unmarked) [CBK264591] | 116.28 |
| Cc1c(C(=O)N2CCn3c(C)nnc3C2)sc2cccc(F)c12 [CBK304923] | 49.6644 |
| COc1cc(-c2cn3ccnc3c(N3CCN(c4ccncc4)CC3)n2)cc(OC)c1OC [CBK037896] | 93.1051 |
| CC(=O)Nc1ccc(/C(C)=N\NC(=O)CCN2CCCCC2)cc1 [CBK263509] | 115.952 |
| Nc1ncc(-c2ccc(C(F)(F)F)cc2)c(C2CCCN(C(=O)c3ccccc3)C2)n1 (centres unmarked) [CBK285790] | 67.4839 |
| NC(=O)CN1CCC(Cc2ccccc2)CC1 [CBK138319] | 87.2888 |
| CCNC(=O)N1CC2(CCN(CCn3cccc3)CC2)c2ccccc21 [CBK143945] | 96.5094 |
| N#Cc1ccc(COc2cccc(Cl)c2Cl)cc1 [CBK002611] | 134.203 |
| CN1CCN(Cc2c(O)ccc3occ(C(=O)c4ccccc4)c23)CC1 [CBK111438] | 85.9715 |
| CCC(C)(C)c1ccc(S(=O)(=O)NCC2CC2)cc1 [CBK044994] | 98.8836 |
| O=C(c1ccno1)N1CCC(Cc2ccccc2)CC1 [CBK200185] | 97.6011 |
| O=C(/C=C/c1ccccc1)Oc1cccc(NC(=O)C2CC(=O)N(c3ccccc3)C2)c1 (centres unmarked) [CBK264330] | 92.2958 |
| Cc1nc(C(F)(F)F)ccc1C(=O)NCC(C)(C)N1CCCCC1 [CBK281864] | 126.356 |
| COc1ccc(C2Nc3ccccc3C(=O)N2c2ccc(C)cc2)cc1Cn1nc(C)c([N+](=O)[O-])c1C (centres unmarked) [CBK263703] | 70.3692 |
| CCCCOC(=O)CCNc1n[nH]c(=O)[nH]c1=O [CBK027838] | 91.2472 |
| CC(C)Nc1cncc(OCCCc2ccncc2)n1 [CBK115881] | 88.4044 |
| CCN1CCCCC1CNC(=O)c1sc(C)nc1C (centres unmarked) [CBK282206] | 83.9314 |
| Cc1cc2c(cc1C)N(C(=O)CSc1ncn[nH]1)C(C)(C)c1ssc(=S)c1-2 [CBK263786] | 110.983 |
| Cc1cc(C)nc(N2CCC(CC(=O)NCCCc3ccc(F)cc3)CC2)n1 [CBK285995] | 118.198 |
| O=C(c1cncc(-c2[nH]nnc2-c2ccccc2)c1)N1CCCC1 [CBK160360] | 97.0484 |
| O=C(Nc1nc(-c2cccc([N+](=O)[O-])c2)cs1)c1ccc(S(=O)(=O)N2CCCC2)cc1 [CBK102813] | 82.2884 |
| CO[C@H]1CN(C)C[C@@H]1NC(=O)c1cccc2c1NCCC2 [CBK307107] | 111.615 |
| CN1CCC(C(=O)N2CCN(CCc3ccccc3)CC2)CC1 [CBK200216] | 98.2986 |
| Cc1ccc(NC2CC(C)N(C(=O)c3cccc([N+](=O)[O-])c3)c3ccc(C)cc32)cc1 (centres unmarked) [CBK293929] | 98.976 |
| Cc1c(NC(=O)Nc2ccccc2)sc(=S)n1C [CBK027434] | 72.3615 |
| C(=C\c1nccnc1OCc1ccccn1)/c1ccccc1 [CBK106874] | 77.8676 |

| SMILES | % of control remaining |
| --- | --- |
| FC(F)(F)c1cc(-c2cn3ccnc3c(Nc3ccc4[nH]ccc4c3)n2)cc(C(F)(F)F)c1 [CBK066356] | 80.5353 |
| CCOc1ccc(S(=O)(=O)Nc2ccc(C(=O)O)c(O)c2)cc1 [CBK299837] | 85.7216 |
| CC(C)CC(=O)N1C[C@H]2CCCN(Cc3ccccn3)[C@H]2C1 [CBK285269] | 114.316 |
| COc1ccc(NC(=O)CSc2nnc(-c3ccncc3)n2-c2ccc(C)cc2)cc1Cl [CBK266187] | 122.042 |
| COc1cncc(C(NC(=O)c2cc(=O)cc(C)o2)[C@H]2C[C@@H](O)C2)c1 (some centres unmarked) [CBK306833] | 56.0101 |
| CCOCC1CN(c2cc(CO)c(F)cn2)CCO1 (centres unmarked) [CBK304756] | 33.5456 |
| COc1cccc(N2C(=O)N[C@@H]3CCN(C(=O)c4cccs4)[C@@H]3C2=O)c1 [CBK289279] | 94.9636 |
| CCCN(C(C)=O)c1nc(O)cc(C(F)(F)F)n1 [CBK000427] | 82.6276 |
| O=C(NC1Cc2ccccc2C1)c1cscn1 [CBK200363] | 86.5014 |
| CS(=O)(=O)c1ccc(CNC(=O)c2ccccc2Nc2cccc(C(F)(F)F)c2)cc1 [CBK149580] | 86.3339 |
| COc1cccc(C(=O)N2CCN(C)C(=O)C2Cc2ccccc2-c2ccccc2)c1OC (centres unmarked) [CBK285828] | 113.33 |
| CCCCc1ccc(NC(=S)NC(=O)c2ccc(OC)c(OC)c2)cc1 [CBK157691] | 83.6277 |
| CN(C)c1ccc(-c2[nH][nH]c(=O)c2CCCN)cc1 [CBK288406] | 99.252 |
| Cc1nc2sccn2c1-c1csc(Nc2cccc(C(=O)O)c2)n1 [CBK263291B] | 85.0082 |
| COCCn1cc(C(=O)N2CCOC3CCCCC32)c2ccccc21 (centres unmarked) [CBK305288] | 14.6114 |
| CSc1nc2ccc(Nc3cc(C)nc4ncnn34)cc2s1 [CBK297724] | 87.2796 |
| COc1ccc(Cc2nc3ccccc3n2CCc2ccccc2)cc1 [CBK266385] | 95.2196 |
| O=C(COCc1nc2ccccc2[nH]1)N1CCC(c2ccccc2)C1 (centres unmarked) [CBK281840] | 112.42 |
| COc1ccc(C(=O)NC(NCc2ccco2)C(Cl)(Cl)Cl)cc1 (centres unmarked) [CBK262279] | 77.1544 |
| NC1CCCN(C(=O)c2ccc(Oc3cccc(Br)c3)nc2)C1 (centres unmarked) [CBK304747] | 66.3672 |
| O=C(NCCCC1CCOC1)c1cc2ccc(F)cc2[nH]1 (centres unmarked) [CBK283213] | 72.625 |
| CC(=O)Nc1ccc(S(=O)(=O)N2CCC(N3CCOCC3)CC2)cc1 [CBK264653G] | 90.6728 |
| CS(=O)(=O)N1CC2(CCN(C(=O)[C@@H](N)COCc3ccccc3)CC2)c2ccccc21 [CBK022597C] | 79.0803 |
| Cc1cc(C2CCCCCN2C(=O)c2cc(C(C)C)on2)on1 (centres unmarked) [CBK281733] | 92.3826 |
| CCC1(C)CC(=O)c2cc(NC(=O)N(CCO)CCO)ccc2O1 (centres unmarked) [CBK307003] | 57.4309 |
| CC(C)NC(=O)c1sc2ccccc2c1C1CN(C(=O)CC2CCCCC2)CCO1 (centres unmarked) [CBK285869] | 116.944 |
